Experimental data as given in publication PMC12136788.
Positions count from the first letter of the chain named. Some of the results follow.

B1: chr8:97851540:97851652:+|3pUTR|ENSG00000104341|msi1_unk|total|mutant (ssRNA)
RNA: GGGAGUUCUACAGUCCGACGAUCCACUUUUGCCAUGAGCCUCUCUGAGCUUGUUUGUUGCUGAAAUGCUACUUUUUAAAAUUCCGAUGUCCGAUUGAAAACUGCCGUUUUCAACAUAUGCUUUGCUGGAACACUGUGACCGAUCAACAGAGGAUUGAGCAUCA
B2: ENSG00000155158:stop:overlap|stop_codon|ENSG00000155158|stop_codon|NA|stop_codon (ssRNA)
RNA: GGGAGUUCUACAGUCCGACGAUCAAACCAUCUCAAUUUGGCUUAAAAAAAAAUCUGGUAGAAGAGAGGGAAAGACAUCUUCAUAGUGGGACUAUAUUCAUUCCUCCAAAGUUACAGCUGCUCUAAAUCUGUGAGUGCUGAAAUCAACAGAGGAUUGAGCAUCA
B3: ENSG00000124766:be:win_701|CDS|ENSG00000124766|bound_else_gene|NA|bound_elsewhere_windowed (ssRNA)
RNA: GGGAGUUCUACAGUCCGACGAUCCCGCCUCCUUCGCCGCCGAACAGGCGGGGGCCGCCGCCCUGCUGCCCCUGGGCGCCGCCGCCGACCACCACUCGCUGUACAAGGCGCGGACUCCCAGCGCCUCGGCCUCCGCCUCCUCGGCAACAGAGGAUUGAGCAUCA
B4: ENSG00000198589:be:win_3101|CDS|ENSG00000198589|bound_else_gene|NA|bound_elsewhere_windowed (ssRNA)
RNA: GGGAGUUCUACAGUCCGACGAUCUGGAAGAAACACUGACAAAUGAGACAAGGAAUGCAGAUGAUUUAGAAGUAUCUUCUGACAUAAUAGAAGCUGUGGCUAUUUCCUCUAAUUCUUUUAUAACAACUGGCAAAGAUUCAAUGACAACAGAGGAUUGAGCAUCA
B5: chrX:150768173:150768360:-|3pUTR|ENSG00000102181|msi1|total|mutant (ssRNA)
RNA: GGGAGUUCUACAGUCCGACGAUCUCCCAUCUGAUUCCACCGGGGGCUGGGUGUGGCCUUCGGGUUGACAUGAGAAAGGUCUUCCGCAAUCAUUUCUGCACCGGAGAUGAGUUUUAUCCUGUGUUGGGGAGAGGUGCUCACCCUCAACAGAGGAUUGAGCAUCA
B6: chr17:74609884:74612652:-|three_prime_utr|ENSG00000186407|control|control|control (ssRNA)
RNA: GGGAGUUCUACAGUCCGACGAUCGACCUGUGGACUCUGGAGGGAUUUAUUGUUCCUGUGCCUCAAAGGAGGGUCCUGGCUCUUAGAGGACACUCCUCUGGAGUCCUCAAUGUGCAGCUUGGGGGUCCUCCUUUCUCCUCCCCACAACAGAGGAUUGAGCAUCA
B7: chr1:55067125:55067226:-|3pUTR|ENSG00000162402|msi1|total|mutant (ssRNA)
RNA: GGGAGUUCUACAGUCCGACGAUCUAUCAUCGCUGGCGACUGCACUCUCAGGAGCCCAAAAUCAGGAGUGAAAUUGCCACUUCCCGUCCCCUUAUUUCCUAUGGAAACAACGCCUUCCGCACCCCCCGCACCUGCCGUCCUCACCAACAGAGGAUUGAGCAUCA
B8: chr12:122133860:122133961:+|CDS|ENSG00000175727|msi1|FALSE|unique (ssRNA)
RNA: GGGAGUUCUACAGUCCGACGAUCUUUUGUGCACCCCAAACCUGUAUCCUUGACUGGGGGCAGGCCUAAGCAGCCCCACAAAAUAGUGCCUGCUCCCAAACCAGAGCCCGUGUCCUUGGUGUUGAAGAAUGCCCGUAUCGCCCCCAACAGAGGAUUGAGCAUCA
B9: chr20:58910839:58911044:+|3pUTR|ENSG00000087460|msi1_unk|FALSE|overlapping (ssRNA)
RNA: GGGAGUUCUACAGUCCGACGAUCCCUUAAGCACAAUUAAUUAAAAGUGAAACGUAAUUGUACAAGCAGUUAAUCACCCACCAUAGGGCAUGAUUAACAAAGCAACCUUUCCCUUCCCCCGAGUGAUUUUGCGAAACCCCCUUUCAACAGAGGAUUGAGCAUCA
B10: ENSG00000070961:be:win_1601|CDS|ENSG00000070961|bound_else_gene|NA|bound_elsewhere_windowed (ssRNA)
RNA: GGGAGUUCUACAGUCCGACGAUCAGGGUGGAUUACCUCGUCACGUUGGUAAUAAAACUGAAUGUGCCUUGUUGGGACUUCUUUUGGAUUUAAAACGGGAUUAUCAGGAUGUUAGAAAUGAAAUACCAGAAGAAGCACUGUACACAACAGAGGAUUGAGCAUCA
B11: ENSG00000103404:stop:overlap|stop_codon|ENSG00000103404|stop_codon|NA|stop_codon (ssRNA)
RNA: GGGAGUUCUACAGUCCGACGAUCUCUGCCCAAGAGCAAAUAAACGAACAUUCUUCCUCCUUUUCCUGAGUUGGGUCGUCCAGUAGGUAGCUGACUGAUUGGGGAGUGGUAUGUGCAGAUGGCAUUGUCUGGUCAACUGAGGAUCAACAGAGGAUUGAGCAUCA
B12: ENSG00000083857:stop:overlap|stop_codon|ENSG00000083857|stop_codon|NA|stop_codon (ssRNA)
RNA: GGGAGUUCUACAGUCCGACGAUCCACUUCCAUAUUCCAUUUUAUUUGUGGUACAUACAUUUCUCAGCCAUUUGGAAUUGUCAUAGAUACUGGCGUAAGGACAUGCUGUAUGGCUGAUUGGGCCUCUGGUAUCACUGGGAUACACAACAGAGGAUUGAGCAUCA
B13: chr16:68260521:68260622:+|3pUTR|ENSG00000103066|msi1|FALSE|unique (ssRNA)
RNA: GGGAGUUCUACAGUCCGACGAUCUCGCAGCUUCCCUGAGCUGCACCUCUUGCUAACCCCACCAUCACACUGCCACCCUGCCCUAGGGUCUCACUAGUACCAAGUGGGUCAGCACAGGGCUGAGGAUGGGGCUCCUAUCCACCCCAACAGAGGAUUGAGCAUCA
B14: chr13:51761002:51761103:+|3pUTR|ENSG00000139668|unk|total|mutant (ssRNA)
RNA: GGGAGUUCUACAGUCCGACGAUCACGGCAAGAUUGUAAUCCUGCUGUAUUCCUCGCCCUCUGUAUUCUAUCCCUUUAAAAACCCGAUAUUUAAACAUUUUAUCCUAAUGUGUUUCAUCAGAACACUUUGCACACUUUCUUACUCAACAGAGGAUUGAGCAUCA
B15: chr1:113685846:113685948:+|3pUTR|ENSG00000081026|unk|total|mutant (ssRNA)
RNA: GGGAGUUCUACAGUCCGACGAUCUAUAUACACUUGAGGUUCUGAUCCGAGAAAGAUCUGUAAAUUGCUCAUUAUUUUUUAUACCGAUAUUUAAAAAAAACAGUUUAUGGCCUGCAUUUCUUUUACUGUCACAUUGGUUUAAUGCAACAGAGGAUUGAGCAUCA
B16: ENSG00000136451:be:win_3301|3pUTR|ENSG00000136451|bound_else_gene|NA|bound_elsewhere_windowed (ssRNA)
RNA: GGGAGUUCUACAGUCCGACGAUCAUUGUACAACUUUUGUAUAUAUAAAAGCUUAGGAACUUUCUGUUUAGCAGGAAGGCAACACAUUCCUACACUUUUAAUGUAUAUGUUUGUUAUAAUGUCCAUGUAAACAUGCCCUAUGUUCAACAGAGGAUUGAGCAUCA
B17: chr1:55067125:55067226:-|3pUTR|ENSG00000162402|msi1|FALSE|unique (ssRNA)
RNA: B7 RNA with C83U, C84A, C125U, C126A
B18: chr3:15254852:15254953:-|3pUTR|ENSG00000131370|msi1|FALSE|unique (ssRNA)
RNA: GGGAGUUCUACAGUCCGACGAUCAAACUGUUAAUUCUGUCACAGCCUGUAUAUUUUAGUCAUUUGUAAAUCUCUUCAUACAAUAGUGACUUCUUUUUUGACUGAUACAGUAUCUUAAUUACAAGGUUAUUUUGUACUUGUCUUCAACAGAGGAUUGAGCAUCA
B19: chr16:61647241:61654101:-|three_prime_utr|ENSG00000150394|control|control|control (ssRNA)
RNA: GGGAGUUCUACAGUCCGACGAUCAAAGAAACUUGACAGUGGAUUAUAAAUAAAUCACUGGAACUGAGCAUUCUGUAAUAUUCUAGGGUCACUCCCCUUAGAUACAACCAAUGUGGCUAUUUGUUUUAGAGGCAAGUUUAGCACCAACAGAGGAUUGAGCAUCA
B20: chr20:59938049:59938150:-|3pUTR|ENSG00000132825|unk|total|mutant (ssRNA)
RNA: GGGAGUUCUACAGUCCGACGAUCAAGUUUGAAACUAAGCAUUUUAAGAAGUCUUGCCUCAGUUAUUUCAGUUUUCAGGUGACCCGAGAAUUUCAGGCAACAGUGCCCUUUGCAAUUACCUUUUUGAUGAUUAAGGUGACUAUUCAACAGAGGAUUGAGCAUCA
B21: ENSG00000198589:be:win_8901|3pUTR|ENSG00000198589|bound_else_gene|NA|bound_elsewhere_windowed (ssRNA)
RNA: GGGAGUUCUACAGUCCGACGAUCUGAGAAAUAGGAUUUUCACAGUGGGGAAGUGGGUUACAAUAUUGGAAUAGGAAAAUUUGAUGCUGUAAUUUGGGUCCUGUAUUUUUCCAAACAACUGUGCUUCUUCAGCACUAAUAUUUCCAACAGAGGAUUGAGCAUCA
B22: chr6:111694403:111694505:-|CDS|ENSG00000010810|unk|total|mutant (ssRNA)
RNA: GGGAGUUCUACAGUCCGACGAUCAAUGGCUUACAUCGAGCGCAUGAAUUAUAUCCACCGAGAUCUGCGAUCAGCAAACAUUCCCGUGGGGAAUGGACUCAUAUGCAAGAUUGCUGACUUCGGAUUGGCCCGAUUGACCGAAGACAACAGAGGAUUGAGCAUCA

What follows are binders tested against T1, UNK ZnF1-6 (called full-length) (human, UniProt Q9C0B0 30-357) (assay: nsRBNS (natural sequence RNA bind-n-seq); RBNS binding buffer (assumed for nsRBNS): 25 mM Tris pH 7.5, 150 mM KCl, 3 mM MgCl2, 0.01% Triton X-100, 500 ug/ml BSA, 20 U/ml SUPERase-In, 4 C; UNK is unkempt and MSI1 is Musashi-1; names of the RNAs are library labels; protein concentration not given here; high values mean tight binding).
T1 sequence: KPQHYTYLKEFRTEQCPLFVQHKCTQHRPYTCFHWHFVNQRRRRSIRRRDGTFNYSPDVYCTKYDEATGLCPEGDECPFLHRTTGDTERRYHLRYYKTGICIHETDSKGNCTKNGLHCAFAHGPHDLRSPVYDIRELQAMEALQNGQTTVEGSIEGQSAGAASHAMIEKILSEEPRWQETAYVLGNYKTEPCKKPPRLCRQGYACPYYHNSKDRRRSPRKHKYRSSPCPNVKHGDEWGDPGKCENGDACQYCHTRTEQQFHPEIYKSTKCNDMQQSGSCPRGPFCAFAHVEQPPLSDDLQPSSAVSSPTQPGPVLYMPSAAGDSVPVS

Binder	binding signal
B1	0.351 enrichment R
B2	0.735 enrichment R
B3	0.695 enrichment R
B4	0.6 enrichment R
B5	0.678 enrichment R
B6	0.671 enrichment R
B7	0.819 enrichment R
B8	0.506 enrichment R
B9	0.504 enrichment R
B10	0.486 enrichment R
B11	0.787 enrichment R
B12	0.91 enrichment R
B13	0.739 enrichment R
B14	0.835 enrichment R
B15	0.88 enrichment R
B16	0.309 enrichment R
B17	1.03 enrichment R
B18	0.54 enrichment R
B19	1.08 enrichment R
B20	1.02 enrichment R
B21	0.838 enrichment R
B22	0.354 enrichment R
